# Assay results taken from the supplement of paper PMC11417369.
# The list shows a part of the results.
# Test system: PfAP2-HC AP2 domain (GST-tagged)
# Assay: gcPBM binding intensity (ln(normalized median fluorescence intensity)); higher = stronger DNA binding
# Method in brief: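 An Agilent 4 × 180k array carrying primer-extended double-stranded 36-bp intergenic genomic probes and negative controls received GST-tagged P. falciparum DNA-binding domains expressed in E. coli, about 25 μg on average, for 1 h. The binding buffer contained 1× PBS, 1% milk, 0.2 mg/ml BSA, 0.5% salmon testes DNA and 0.03% Triton X-100. Binding intensity is the top Masliner-normalised natural-log median intensity across replicate spots of either probe orientation, read after Alexa488 anti-GST antibody staining and a 488 nm scan.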
row,Sequence,gcPBM binding intensity (ln)
1,TTGTAATAAATAAAAGTGCATATATGGTTCCACTAT [GTGCAC_site9944],9.61
2,TATAATTATATAAATTGTACATAAAAAGTTTTTACT [XGTACX_site3621],9.45
3,TATTATATCTTTTCAAGTACACATAACATACTTATT [XGTACX_site1081],9.8
4,ACATATTAAATATGAGTGCAATATATATATATATAA,9.77
5,TATATATACTTTTATGTACACACCTATAATATGGGT [CACACA_site1759],9.87
6,AAATGTAATAATAAATGTACAAACATATATATGTAT [XGTACX_site8718],9.81
7,ATAAATAAATAAAAAAGTACATTTCCACTTTTAACA [XGTACX_site81],9.38
8,TGCACCCACCAACACACACACAACTAAAAAATAATG [CACACA_site2566],10.5
9,AAGTTTAAAATCTTTGCACACATATAAATAAATATA [CACACA_site2554],9.63
10,CAATATATTATATGGGTGCAAACCACATATAAATAA,9.67
11,TTAGGTATATATAAACGTACTCACAATATCATATAA [XGTACX_site8743],9.54
12,ACTTAGGAAATAAAACGTACATTAAATATATACATA [XGTACX_site2990],9.61
13,TGAATAATCAATAGTACACACATATAAATATAAATA [CACACA_site7345],9.88
14,TTTTATTTATTATTATGTACACACTATATTAAAACA [XGTACX_site1265],9.69
15,GTATGTATGTATGTATGTACTTATTAATCAGTAAAA [XGTACX_site3844],9.71
16,ATAAAAGATATGTATATGTATATGTATATATATATA [TGCATGCA_negctrl_site214],10.1
17,TATAAATAAATAGATACACACATATTTATAAATACA [CACACA_site6219],9.79
18,TTACGCTGCTATATAGTGCACATAATATATGACCTG,9.43
19,GCTTAAGGTAAATATAAAATATAGTGTATACTTTAG [XGTACX_negctrl_site585],9.51
20,AAATAAAATAATAAAACATGCAAAAATAATGATTTA [TGCATGCA_site415],9.83
21,ATAAAGATTAACAAAGTGCATTTATATATATAATCT [GTGCAC_site9407],9.68
22,TTTTTGTTAACAATGGGTACAAAAAAAAGGAAAATA [XGTACX_site7466],9.49
23,CCCAAAAAATATCATAGTACTCAACATGACTACTAT [XGTACX_site7838],9.63

row,Sequence,gcPBM binding intensity (ln)
1,AATTTTGTATAGGTATCACACATGAAATATATTATT [CACACA_site5526],9.7
2,ATTCTACGCACGCGCACACACAACAAAAAAAAAAAA [CACACA_site3538],9.98
3,GTGATGGTACAATATACACACTTAAAAAAAAAAAAT [CACACA_site5360],9.62
4,CATGTGTGATAATGATGTACTATATTAAGCTAGTCC [XGTACX_site2690],9.62
5,TATATACATATATATTGTACTTATTTTTATAATGTC [XGTACX_site3453],9.75
6,TTTATAATTCTTACAACACACAATGTACTTTTATAT [CACACA_site8340],9.9
7,TTTATTTCCTTTTTGTGTACATATATATGTAATTCA [XGTACX_site1718],9.77
8,TTAAGGCATCAACATAGTACAATTTTTCTATAATAA [XGTACX_site1114],9.4
9,ATTTAATACAAATACACACACAAATAAATACAGATA [CACACA_site5956],10.2
10,TCGAATATCTTATAGGTGCATCATAAATACATATGT,9.66
11,TAATTCTTTATTTTTCGTACGTAAAACAAAAAATAT [XGTACX_site862],9.51
12,AATGTAAAGAACAAAACATGCAACTAGTTTACTTTT [TGCATGCA_site841],9.72
13,TAGAAAAAAGATAGCACACACGGCCCAATATATATA [CACACA_site5354],10
14,TAAGTATATAAAATTACACACTATTTTTTTTCAAGT [CACACA_site1792],9.62
15,ATGCAATAATAATGGAGTACATATTAATATTGATCA [XGTACX_site2312],9.66
16,AAAAAATATATTAAGGCACACACATACATATATATA [CACACA_site9239],10.2
17,CCTTTTGGATGAAAGTGTACAGGTGAGAAAAATTCC [XGTACX_site3358],9.5
18,TTAATTTCGAATTATTGTACATTAATATATCTACAG [XGTACX_site3314],9.4
19,AAAACAAATAGACACGCACACAAAAAAAAAAAAAAA [CACACA_site801],10.3
20,ATATATATATATATATGTACATAAATATAAATTTAA [XGTACX_site8715],9.64
21,TTTTAAAACAATGAGATTCCTTTCTTTTTTTCTTTT [CACACA_negctrl_site1320],9.35
22,ATATTTATTTATATCATACACACTAATATGTATATT [CACACA_site7576],9.87
23,TATCCCTTAGAATACACACCCATATGAGGGTGAACT [CACACA_site5610],9.52

row,Sequence,gcPBM binding intensity (ln)
1,CTTAATGATAAATACATACACACAAAAAATAATATA [CACACA_site2577],9.87
2,AAGAAAATGTAGAATTAGAAATAAATGAAGAAATGA [TGCATGCA_negctrl_site548],9.62
3,TATATGTTTAATTTCACACACAAATATACATTTTAA [CACACA_site4171],9.79
4,AGTAGATTTTTATTAGTGCATTTTATACTACAAAAA,9.42
5,CATTAGCATTTTATTACACACAATAAATTAGAAGTA [CACACA_site7837],9.66
6,ATTCTTAAATGTGGTTGTACATATTATCACCTTTAA [XGTACX_site8188],9.65
7,TTTTTAATTTTATATACACACATAAAAGATATGAAG [CACACA_site7470],9.33
8,ATATTCTCTTAAATATGTACGTATGTATATATATAT [XGTACX_site5885],9.79
9,CGCAAAACAATGATACGTACATATATATATATATAT [XGTACX_site5883],9.68
10,AACGAAAACACTACGTGTACCAAACGTCCTACCAAC [XGTACX_site257],10.2
11,AATAGTTAAATACATACATGCATTCATATAATATAT [TGCATGCA_site433],9.67
12,AAGATAAAAATATGCACACATATATATATATATATA [CACACA_site404],10.1
13,TAATTAAGAATATATAGTACATAGTTGAAAAACTTT [XGTACX_site6359],9.46
14,AATGTACGCATATACACACACATAAATAGATACGTA [CACACA_site3406],10
15,TTTTTTTTTTTTTTTTTTTTACGATATATTTTAAAA [XGTACX_negctrl_site401],8.57
16,TAGATCATAACAATTGCACACATTTGCATTTATATT [CACACA_site1562],9.92
17,TTTTTACTTATTTATTATGTACAATTTCTTCTTTCT [CACACA_negctrl_site264],9.76
18,TTCAAAAAATATATCTGTACAAATTATGTAGATGAA [XGTACX_site5522],9.44
19,AGTATTTTGTTTATCACACATATTGGAATTTTCAAT [CACACA_site4686],9.73
20,AAAATAATTCAATGTAGTACAATACAAATTGAGAGA [XGTACX_site5991],9.8
21,AAAATTATACACACACGTACATATAAATAGAAATAT [XGTACX_site1753],10.3
22,TTTGTTGGTATGGTTACACACATTTAGGAAATAAAA [CACACA_site1411],9.65
23,TCTTATAAATTAAATATAAAAAAAAAAAAAAAAAAA [XGTACX_negctrl_site77],8.86

row,Sequence,gcPBM binding intensity (ln)
1,TTTTTATAACAGCTTAGTACATATAAGAATTCTTGC [XGTACX_site5890],9.47
2,GACCCCATATACATATGTACATACATAATATATATA [XGTACX_site1817],9.89
3,AAATGGACAGTATAAAAATGGAGAATATAAAAATTT [CACACA_negctrl_site889],9.72
4,TATATATAAAAAAAAAGTACATATAATATAATATTT [XGTACX_site7902],9.61
5,GGTGTTTTTCACAGATGTACACAAATAAAAAAGAAA [XGTACX_site4454],9.61
6,CCTTTTTATTTTTGTAGTACTACATATACATATCTG [XGTACX_site7791],9.82
7,AAAAAAAAAAAAAATAAATAAATAAATAAATATATA [GTGCAC_negctrl_site382],9.34
8,ATATTAAAAAAATATAAACACACAAAAAAAAAATAT [CACACA_site8283],9.91
9,TATTCAAAGAAAAACTGTACGTGTAGCAAACGTCAT [XGTACX_site7713],9.55
10,AAAATAATGAAATGAAAAAAAAAAATTTAGATTCTA [CACACA_negctrl_site1385],9.47
11,AAAAAAAAAAAAAATACACACATATTTTATAGGGGA [CACACA_site3261],9.78
12,TATTTTTTGAAAAGTTCACACATCCAACTCGAGTTG [CACACA_site4412],9.62
13,TTATATATTTTTAGGTGTACTTTTTTTTTTTTTTTT [XGTACX_site8164],9.54
14,GTCATATATTTATGTACACACATATATATATTTATA [CACACA_site4911],9.86
15,CTAATTGTTATTTTGTGTACTTATCATTCGAAATAT [XGTACX_site7963],9.7
16,AAAAAACAAATAAGTAAACACACATATATAATATAT [CACACA_site8830],10.3
17,TAGATGTAAGTACATACACACATATATAAATAAATA [CACACA_site8528],9.95
18,ATATATATTTTAATTACACACAAAAAAAAAAAAAAA [CACACA_site4778],9.38
19,AGGATATATATATTCACACACACATGGAAATATATA [CACACA_site383],10.2
20,ATATATATTTTATATTGTACTTATTATTTTTAGGGC [XGTACX_site723],9.53
21,TATGAATATCTATACACACACATATAAATACACGCT [CACACA_site6853],10.3
